# In the supplement of paper PMC8728848:
# The other results are listed elsewhere or left out.
# B1: Surfactant Protein D (Human); Neck + Carbohydrate Recognition Domain (NCRD) (Homo sapiens) (protein)
# chain: MLLFLLSALVLLTQPLGYLEAEMKTYSHRTMPSACTLVMCSSVESGLPGRDRDGREGPRGEKGDPGLPGAAGQAGMPGQAGPVGPKGDNGSVGEPGPKGDTGPSGPPGPPGVPGPAGREGALGKQGNIGPQGKPGPKGEAGPKGEVGAPGMQGSAGARGLAGPKGERGVPGERGVPGNTGAAGSAGAMGPQGSPGARGPPGLKGDKGIPGDKGAKGESGLPDVASLRQQVEALQGQVQHLQAAFSQYKKVELFPNGQSVGEKIFKTAQFVKPFTEAQLLCTQAGGQLASPRSAAENAALQQLVVAKNEAAFLSMTDSKTEGKFTYPTGESLVYSNWAPGEPNDAGGSEDCVEIFTNGKWNDRACGEKRLVVCEF
# Columns and labels:
# Test in all cases: glycan array binding signal (z-score within array); higher = stronger binding
# Details in all cases: glycan notation: IUPAC condensed, linker removed; mutation: D325A
# [1] = target: Neu5Ac(a2-3)Gal6S(b1-4)[Fuc(a1-3)]GlcNAc
# Method in brief: (§1)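 Columns mapping to the same glycan were averaged after glycan names were converted to IUPAC-condensed notation. The data come from 3228 arrays in the Consortium for Functional Glycomics database, limited to those with an available protein sequence. Binding is reported as a within-array Z-score averaged across arrays of one protein sequence and across linkers.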
# Neu5Ac(a2-3)GalNAc = target: Neu5Ac(a2-3)GalNAc
# Method in brief: as §1
# [2] = target: Neu5Ac(a2-3)GalNAc(b1-4)GlcNAc
# Method in brief: as §1
# [3] = target: Neu5Ac(a2-3)[GalNAc(b1-4)]Gal(b1-4)Glc
# Method in brief: as §1
# [4] = target: Neu5Ac(a2-3)[GalNAc(b1-4)]Gal(b1-4)GlcNAc
# Method in brief: as §1
# [5] = target: Neu5Ac(a2-3)[Neu5Ac(a2-6)]GalNAc
# Method in brief: as §1
# Neu5Ac(a2-6)Gal = target: Neu5Ac(a2-6)Gal
# Method in brief: as §1
# Neu5Ac(a2-6)Gal(b1-4)Glc = target: Neu5Ac(a2-6)Gal(b1-4)Glc
# Method in brief: as §1
# [6] = target: Neu5Ac(a2-6)Gal(b1-4)GlcNAc
# Method in brief: as §1
# [7] = target: Neu5Ac(a2-6)Gal(b1-4)GlcNAc(b1-2)Man(a1-3)[Gal(b1-4)GlcNAc(b1-2)Man(a1-6)]Man(b1-4)GlcNAc(b1-4)GlcNAc
# Method in brief: as §1
# [8] = target: Neu5Ac(a2-6)Gal(b1-4)GlcNAc(b1-2)Man(a1-3)[GlcNAc(b1-2)Man(a1-6)]Man(b1-4)GlcNAc(b1-4)GlcNAc
# Method in brief: as §1
# [9] = target: Neu5Ac(a2-6)Gal(b1-4)GlcNAc(b1-2)Man(a1-3)[GlcNAc(b1-2)Man(b1-4)GlcNAc(b1-2)Man(a1-6)]Man(b1-4)GlcNAc(b1-4)GlcNAc
# Method in brief: as §1
# [10] = target: Neu5Ac(a2-6)Gal(b1-4)GlcNAc(b1-2)Man(a1-3)[Neu5Ac(a2-6)Gal(b1-4)GlcNAc(b1-2)Man(a1-6)]Man(b1-4)GlcNAc(b1-4)GlcNAc
# Method in brief: as §1
# [11] = target: Neu5Ac(a2-6)Gal(b1-4)GlcNAc(b1-2)Man(a1-6)[Gal(b1-4)GlcNAc(b1-2)Man(a1-3)]Man(b1-4)GlcNAc(b1-4)GlcNAc
# Method in brief: as §1
# [12] = target: Neu5Ac(a2-6)Gal(b1-4)GlcNAc(b1-2)Man(a1-6)[GlcNAc(b1-2)Man(a1-3)]Man(b1-4)GlcNAc(b1-4)GlcNAc
# Method in brief: as §1
# [13] = target: Neu5Ac(a2-6)Gal(b1-4)GlcNAc(b1-3)Gal(b1-4)GlcNAc
# Method in brief: as §1
# [14] = target: Neu5Ac(a2-6)Gal(b1-4)GlcNAc(b1-3)Gal(b1-4)[Fuc(a1-3)]GlcNAc(b1-3)Gal(b1-4)[Fuc(a1-3)]GlcNAc
# Method in brief: as §1
# [15] = target: Neu5Ac(a2-6)Gal(b1-4)GlcNAc6S
# Method in brief: as §1
# Neu5Ac(a2-6)GalNAc = target: Neu5Ac(a2-6)GalNAc
# Method in brief: as §1
# [16] = target: Neu5Ac(a2-6)GalNAc(b1-4)GlcNAc
# Method in brief: as §1
# Neu5Ac(a2-8)Neu5Ac = target: Neu5Ac(a2-8)Neu5Ac
# Method in brief: as §1
# [17] = target: Neu5Ac(a2-8)Neu5Ac(a2-3)Gal(b1-4)Glc
# Method in brief: as §1
# [18] = target: Neu5Ac(a2-8)Neu5Ac(a2-3)[GalNAc(b1-4)]Gal(b1-4)Glc
# Method in brief: as §1
# [19] = target: Neu5Ac(a2-8)Neu5Ac(a2-8)Neu5Ac
# Method in brief: as §1
# [20] = target: Neu5Ac(a2-8)Neu5Ac(a2-8)Neu5Ac(a2-3)Gal(b1-4)Glc
# Method in brief: as §1
# [21] = target: Neu5Ac(a2-8)Neu5Ac(a2-8)Neu5Ac(a2-3)[GalNAc(b1-4)]Gal(b1-4)Glc
# Method in brief: as §1
# [22] = target: Neu5Ac(a2-8)Neu5Ac(a2-8)Neu5Ac(a2-8)Neu5Ac(a2-3)[GalNAc(b1-4)]Gal(b1-4)Glc
# Method in brief: as §1
# [23] = target: Neu5Ac(b2-6)Gal(b1-4)GlcNAc
# Method in brief: as §1
# Neu5Ac(b2-6)GalNAc = target: Neu5Ac(b2-6)GalNAc
# Method in brief: as §1
# [24] = target: Neu5Ac9Ac(a2-6)Gal(b1-4)GlcNAc
# Method in brief: as §1
# [25] = target: Neu5Gc(a2-3)Gal(b1-3)GlcNAc
# Method in brief: as §1
# [26] = target: Neu5Gc(a2-3)Gal(b1-3)[Fuc(a1-4)]GlcNAc
# Method in brief: as §1
# Neu5Gc(a2-3)Gal(b1-4)Glc = target: Neu5Gc(a2-3)Gal(b1-4)Glc
# Method in brief: as §1
# [27] = target: Neu5Gc(a2-3)Gal(b1-4)GlcNAc
# Method in brief: as §1
# [28] = target: Neu5Gc(a2-3)Gal(b1-4)[Fuc(a1-3)]GlcNAc
# Method in brief: as §1
# [29] = target: Neu5Gc(a2-6)Gal(b1-4)GlcNAc
# Method in brief: as §1
# Neu5Gc(a2-6)GalNAc = target: Neu5Gc(a2-6)GalNAc
# Method in brief: as §1
# [30] = target: Neu5Gc(b2-6)Gal(b1-4)GlcNAc
# Method in brief: as §1
binder,measurement,setting,value
B1,glycan array binding signal (z-score),[1],-0.273
same,glycan array binding signal (z-score),Neu5Ac(a2-3)GalNAc,-0.272
same,glycan array binding signal (z-score),[2],-0.27
same,glycan array binding signal (z-score),[3],-0.27
same,glycan array binding signal (z-score),[4],-0.229
same,glycan array binding signal (z-score),[5],-0.274
same,glycan array binding signal (z-score),Neu5Ac(a2-6)Gal,-0.269
same,glycan array binding signal (z-score),Neu5Ac(a2-6)Gal(b1-4)Glc,-0.269
same,glycan array binding signal (z-score),[6],-0.258
same,glycan array binding signal (z-score),[7],-0.252
same,glycan array binding signal (z-score),[8],-0.258
same,glycan array binding signal (z-score),[9],-0.262
same,glycan array binding signal (z-score),[10],-0.249
same,glycan array binding signal (z-score),[11],-0.264
same,glycan array binding signal (z-score),[12],-0.241
same,glycan array binding signal (z-score),[13],-0.266
same,glycan array binding signal (z-score),[14],0.549
same,glycan array binding signal (z-score),[15],-0.273
same,glycan array binding signal (z-score),Neu5Ac(a2-6)GalNAc,-0.184
same,glycan array binding signal (z-score),[16],-0.256
same,glycan array binding signal (z-score),Neu5Ac(a2-8)Neu5Ac,-0.245
same,glycan array binding signal (z-score),[17],-0.271
same,glycan array binding signal (z-score),[18],-0.229
same,glycan array binding signal (z-score),[19],-0.273
same,glycan array binding signal (z-score),[20],-0.273
same,glycan array binding signal (z-score),[21],-0.211
same,glycan array binding signal (z-score),[22],-0.267
same,glycan array binding signal (z-score),[23],-0.274
same,glycan array binding signal (z-score),Neu5Ac(b2-6)GalNAc,-0.268
same,glycan array binding signal (z-score),[24],-0.266
same,glycan array binding signal (z-score),[25],-0.27
same,glycan array binding signal (z-score),[26],-0.267
same,glycan array binding signal (z-score),Neu5Gc(a2-3)Gal(b1-4)Glc,-0.269
same,glycan array binding signal (z-score),[27],-0.273
same,glycan array binding signal (z-score),[28],-0.27
same,glycan array binding signal (z-score),[29],-0.274
same,glycan array binding signal (z-score),Neu5Gc(a2-6)GalNAc,-0.27
same,glycan array binding signal (z-score),[30],-0.258
